Data published in PubChem BioAssay AID1347417 (National Center for Advancing Translational Sciences (NCATS), 2020).
“And” between values parts separate entries of the source, which are not always exact repeats. Equal entries are not always repeated. The whole screen tested about 120,000 compounds, of which about 5,300 (4.4%) were called active. This list was built around the results that the source calls inconclusive (neither active nor inactive); the mix of calls is not that of the screen. Calls come from the whole dose curve; as a rule, active = well fitted inhibition curve with a large enough effect; inconclusive = small, poorly fitted or top-dose-only effect; inactive = no such curve, though single readings can be large or run the other way. A potency beside an inconclusive call is a rough fit, not a confirmed value. Some compounds were tested as several samples or in several runs, with calls that do not always agree.

assay: qHTS Primary assay for Inhibitors of Plasmodium falciparum Dd2 growth in vitro; note: nearly all actives have a fitted effect of over 65% in size; conditions: P. falciparum Dd2 growth, SYBR Green, 72 h; series mostly up to 28.9 µM
Outline: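 Readout: SYBR Green fluorescence, 485 nm excitation, 535 nm emission, after ~16 h lysis at 37C. Before that, Dd2-infected red cells (2.5% hematocrit) grew 72 h with compound, 29 uM top final concentration.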
Potency is the fitted concentration of half-maximal effect; tags give direction and shape of the fitted curve.

SMILES | Potency
CCCN1C(=O)C2(c3ccccc31)c1c(oc3ccc(C)cc3c1=O)C(=O)N2CCOC (stereo not drawn) | inconclusive: 7.94 µM [inhibitor, single point]
C#C[C@H]1CN2CC[C@H]1C[C@@H]2CNC(=O)c1ccc2ccccc2c1 | inconclusive: 10 µM [inhibitor, partial curve, poor fit]
CCCc1nc(C(=O)N2C[C@H](c3cccc(OC)c3)[C@@H](N)C2)cs1 | inactive
COc1ccc(CN2CC(N3CCc4ccccc43)C2)cc1 | inconclusive: 11.2 µM [inhibitor, single point]
CC(=O)c1cccc(NC(=O)c2cc3nc(-c4ccc(Br)cc4)cc(C(F)(F)F)n3n2)c1 | inconclusive: 11.2 µM [inhibitor, single point]
Cn1cccc1CN1CCC(N2C(=O)C(OCC3CC3)C23CCCCC3)CC1 (stereo not drawn) | inconclusive: 15.8 µM [inhibitor, partial curve, poor fit]
CN(C)c1cccc(C(=O)N2CCC3(CC2)NC(=O)N(c2cccc(F)c2)N3)c1 | inconclusive: 11.2 µM [inhibitor, partial curve, poor fit]
C[C@@H]1CN(C2(C(=O)NCc3n[nH]c4c3CCC4)Cc3ccccc3C2)C[C@H](C)O1 | inconclusive: 10 µM [inhibitor, single point]
O=C(CSC1=Nc2ccccc2N=C(c2ccc(F)cc2)C1)NCc1ccccc1Cl | inconclusive: 17.8 µM [inhibitor, single point]
Cc1ccsc1-c1nc(C2CC(=O)N(C3CCCCC3)C2)no1 (stereo not drawn) | inconclusive: 6.31 µM [inhibitor, partial curve, poor fit]
CC(C)(O)CN[C@H]1[C@H](O)[C@H](O)C[C@@H]1c1ccccc1 | inactive
Cc1ccc(NC(=O)N[C@@H]2C=C(C(=O)N[C@@H](Cc3ccc(O)cc3)C(N)=O)C[C@@H](O)[C@@H]2O)cc1 | inactive
O=C(N1CCN(Cc2ccccc2)CC(O)C1)C1(c2ccccc2F)CC1 (stereo not drawn) | inconclusive: 8.91 µM [inhibitor, partial curve]
COc1ccc(-c2[nH]c3ccccc3c2SCCNC(=O)c2ccc(S(=O)(=O)N(C)C)cc2)cc1 | active: 7.94 µM
CN1CC(=O)N(C2CCNCC2)Cc2c(NCCCc3ccccc3)ncnc21 | inactive
O=C(CCc1nc2ccccc2s1)N1CCC(Cc2nc(C3CC3)n[nH]2)CC1 | inconclusive: 10 µM [inhibitor, single point]
O=C(NCc1ccco1)c1ccc2c(c1)CC(=O)N2Cc1cccc(F)c1 | inconclusive: 17.8 µM [inhibitor, single point]
CC(=O)N1CCN(c2nc(-c3c(C)noc3C)cc3cc(C(C)C)oc23)CC1 | inconclusive: 15.8 µM [inhibitor, single point]
CN(C)c1cc(=O)c2ccnc(-c3ccc(O)c(F)c3)c2o1 | inconclusive: 2.82 µM [inhibitor, partial curve, poor fit]
O=c1n(-c2ccc([N+](=O)[O-])cc2)nc2n1CCN(Cc1cccc3ccccc13)C2 | inconclusive: 7.08 µM [inhibitor, partial curve, poor fit]
CCNc1nccc(N2CCC(CC(=O)NCc3ccccc3F)CC2)n1 | inconclusive: 3.55 µM [inhibitor, partial curve, poor fit]
CCOC(=O)c1ccc(NC(=O)CCc2c(C)nc3c(-c4ccc(F)cc4)c(C)nn3c2C)cc1 | active: 3.55 µM

SMILES | Potency
CC(=O)N1CCC2(CC1)CC(c1ccccc1)=NO2 | inactive
COc1ccc(CCC(=O)N2CCC(Cc3nc(-c4ccccc4)no3)CC2)cc1 | inactive
O=C(Cc1ccccc1F)N1C[C@@H](CO)[C@H](c2ccccn2)C1 | inactive
COc1ccccc1N1CCN([C@@H]2[C@H](O)[C@H](CO)O[C@@H]2CNS(=O)(=O)c2ccc(Cl)cc2)CC1 | inconclusive: 17.8 µM [inhibitor, single point]
COC(=O)c1cc2oc(C)cc2n1CC(=O)Nc1cc(Cl)ccc1OC | inconclusive: 17.8 µM [inhibitor, single point]
Cc1cc(Cn2cc3c4c(cccc42)[C@H](CC(C)C)N[C@H](C(=O)NCCN2CCCC2)C3)no1 | inconclusive: 3.98 µM [inhibitor, single point]
COc1ccc(C(=O)Oc2cc(-c3ccc4c(c3)OCO4)cc(=O)c3c(C)oc(C)c23)cc1 | inconclusive: 11.2 µM [inhibitor, single point]
Fc1ccccc1CN1CCNc2cnc(Nc3ccccc3)cc2C1 | inactive
COc1ccc(CNC(=O)c2cc3cccc4c3n2CC(C)S4)c(OC)c1 (stereo not drawn) | inactive
CC(=O)N1CCC(Nc2cc(-c3ccc(Cl)cc3)nc3c(C)noc23)CC1 | inactive
CCOC(=O)C1(Cc2cccc(C(F)(F)F)c2)CCN(Cc2cc(C(C)C)n[nH]2)CC1 | active: 7.08 µM
COCCN1Cc2ccc(Nc3cccnc3)nc2C(C)(C(=O)Nc2ccccc2C)C1 (stereo not drawn) | inconclusive: 17.8 µM [inhibitor, partial curve, poor fit]
COc1ccc(-n2c(/C=C/c3c(C)[nH]c4ccccc34)nc3ccccc3c2=O)cc1 | inactive
COc1ccc(-n2nc(C3CCN(Cc4ccc(C)cc4)CC3)[nH]c2=O)cc1 | inactive and active: 12.6 µM
CCC(C)Sc1c(C(C)C)cnc2c1c(=O)n(C)c(=O)n2C (stereo not drawn) | inconclusive: 20 µM [inhibitor, single point]
CC(=O)c1ccc(NC(=O)N2C[C@@H]3C[C@H](C2)c2ccc(NC(=O)Nc4cccc(C#N)c4)c(=O)n2C3)cc1 | inactive
CN1C(=O)CCC2(CNC(=O)c3ccnn3C)CCC=C12 (stereo not drawn) | inactive
O[C@@H]1[C@@H](Cn2cc(-c3cccnc3)nn2)C[C@@H](NC2CCOCC2)[C@@H]1O | inactive
c1ccc(-c2nc(-c3ccncc3)no2)c(OC2CCNC2)c1 (stereo not drawn) | active: 12.6 µM
COc1ccc(C2C=C(c3ccccc3)Nc3nc(NC(=O)/C=C/c4ccc(F)cc4)nn32)cc1 (stereo not drawn) | active: 12.6 µM
CCCCCn1cc2c(c1-c1ccc(Cl)cc1)c(=O)n(C)c(=O)n2C | inconclusive: 10 µM [inhibitor, partial curve]
